Measurements taken from the supplement of paper PMC10126150.
Values marked as one replicate rest on one cluster of the flow cell; about a third of the high ones do not repeat.

Tested on: ATP
Assay: switch fluorescence ratio, 500 uM ATP over buffer (Cy3 cluster intensity, sum of 5 cycles each) (fold (ratio)); higher = stronger signal-on switching upon ATP binding; sequences stand for … in TCGTCGGCAGCGTCAGATGTGTATAAGAGACAGTTTTTTTTTTTTTTTTTTTTTTTTT…TC
Details: aptamer strand: ATP DNA aptamer (quencher-CACCTGGGGGAGTATTGCGGAGGAAGG + anchor), 100 nM annealed; ATP concentration: 500 uM; one replicate
Summary of the method: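 The quencher-labelled ATP aptamer, at 100 nM, was annealed to Cy3-labelled switching-strand clusters on a modified Illumina MiSeq flow-cell. The clusters were imaged in selection buffer, then after 15 min with 500 uM ATP at 22 °C, and this buffer/ATP cycle ran five times with NaOH stripping and re-annealing between runs. Per-cluster fluorescence ratios, summed target-cycle over summed buffer-cycle Cy3 intensity, were averaged per switch-domain sequence. Clusters outside 100-1000 RFU were excluded.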
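Note: ATP exposure 15 min at 22 °C before imaging.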

Sequence | switch fluorescence ratio
AAGAGCTTAA | 0.935
GATCGATTTT | 0.972
ATTTGCCCTT | 1.07
ATTTCACTTG | 1.03
CAGAACAATA | 1.06
TTAAGACAGG | 0.98
CCTGGCTGTT | 1.13
TAATAAGAAT | 0.977
ATTGACGGTA | 1.07
TATTGTATA | 0.958
TTCCTACGTT | 1.18
GACTGTCGC | 1.07
ACCGATATGC | 1.25
ACAAGTTCTA | 1.06
ATCGGACGC | 1.09
TAGGTCCTCG | 1.02
ATGGCAAGTT | 1.03
CGCAAAATAT | 1.85
ATCGTTGAGC | 0.988
TCTTAGATTT | 0.961

Sequence | switch fluorescence ratio
CACATGGCTT | 0.977
TACACAGCG | 1.06
GAAGTCTGAG | 0.992
TTATTGCCGA | 1.03
TTATGTACCT | 1.2
ATACAGCCCA | 1.05
GAGCCGACCA | 1.02
TAGACGGGTA | 0.98
ATGGAAACGC | 0.976
AGCGGGAC | 3.05
GGTTTTGCGC | 0.99
AGGGCGAGGA | 0.967
GGCTAAGGTA | 0.979
GCCGGCCGTA | 0.967
TCCTACGGTA | 2.78
GGGGCATGAA | 0.988
CAGTGGGCGC | 0.904
TAGTACTAAG | 1.04
GAGGATACTC | 1.02
GTGGTTCGGT | 0.992

Sequence | switch fluorescence ratio
ATGGGGGCCC | 1.01
AGGCATGGTC | 1.04
ATATGTCTAA | 1.02
AGTAGTCATT | 0.95
GTGGAGGCCC | 0.991
GGATACGCAG | 1.05
TTGCGTTATT | 1
TGAATACCGG | 0.983
TATGTGTATT | 0.943
GCTAGGATAA | 0.981
ACGCACGTTG | 1.31
CGCGAACGGC | 1.09
GTCGCGGGTC | 1.03
ATAATACACT | 1.06
GGGGCGCGTT | 0.982
TTTTTCATG | 1.01
AGGGTAACTC | 1.02
GTTTTTGTAG | 0.999
ATGACGGGCC | 0.996
AATAATTTGA | 0.961
